# Results published in PMC4336329 (PLoS ONE, 2015).
# The campaign covered roughly 310,000 compounds. About 14,000 (4.5%) showed an effect of 50% or more. The effect is printed as a negative number. This is one part of the list.
# Target: human ether-à-go-go-related gene (hERG) potassium channel (human, UniProt Q12809)
# Assay: primary screen, population patch clamp on CHO cells stably expressing hERG
# 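Further: peak tail current of the secondary pulse compared with the same well before compound.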
# human ether-à-go-go-related gene (hERG) potassium channel, sequence (Q12809 whole entry, looked up): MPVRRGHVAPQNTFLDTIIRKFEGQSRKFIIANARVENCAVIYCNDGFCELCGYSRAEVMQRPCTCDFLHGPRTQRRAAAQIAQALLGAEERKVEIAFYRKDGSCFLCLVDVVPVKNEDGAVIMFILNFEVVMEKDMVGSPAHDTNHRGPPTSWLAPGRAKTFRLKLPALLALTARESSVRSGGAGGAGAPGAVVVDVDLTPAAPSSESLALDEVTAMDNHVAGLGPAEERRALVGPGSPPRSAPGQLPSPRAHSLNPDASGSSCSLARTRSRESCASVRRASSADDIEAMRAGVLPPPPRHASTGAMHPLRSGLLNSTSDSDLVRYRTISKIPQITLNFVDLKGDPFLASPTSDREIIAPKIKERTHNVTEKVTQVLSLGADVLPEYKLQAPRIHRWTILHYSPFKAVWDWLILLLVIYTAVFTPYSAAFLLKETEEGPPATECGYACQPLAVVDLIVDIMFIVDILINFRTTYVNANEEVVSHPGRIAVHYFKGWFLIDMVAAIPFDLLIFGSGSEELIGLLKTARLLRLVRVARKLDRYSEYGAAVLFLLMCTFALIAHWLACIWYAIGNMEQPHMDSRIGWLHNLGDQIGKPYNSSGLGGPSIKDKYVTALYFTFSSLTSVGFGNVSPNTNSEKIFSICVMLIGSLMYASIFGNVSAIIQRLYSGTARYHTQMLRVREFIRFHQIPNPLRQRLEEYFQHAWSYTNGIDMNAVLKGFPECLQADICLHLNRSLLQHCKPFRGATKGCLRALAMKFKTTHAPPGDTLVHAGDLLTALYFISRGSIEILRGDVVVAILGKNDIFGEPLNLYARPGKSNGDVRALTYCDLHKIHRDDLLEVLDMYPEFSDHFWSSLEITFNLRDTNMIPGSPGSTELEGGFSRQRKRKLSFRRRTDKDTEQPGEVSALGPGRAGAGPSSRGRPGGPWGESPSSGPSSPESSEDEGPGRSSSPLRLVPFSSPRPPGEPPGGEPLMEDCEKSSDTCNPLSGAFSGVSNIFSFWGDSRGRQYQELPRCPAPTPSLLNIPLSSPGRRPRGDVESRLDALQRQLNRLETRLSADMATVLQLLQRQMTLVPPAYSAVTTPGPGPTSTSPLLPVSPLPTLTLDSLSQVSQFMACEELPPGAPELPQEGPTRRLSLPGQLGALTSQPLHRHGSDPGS
row,SMILES,"hERG current change (%, negative = inhibition) at 10uM [%]"
1,COc1ccc(-n2ncc3c2CC(C)(C)CC3NC(=O)CCC2=NNC(=O)CC2)cc1 (centres unmarked),15.8
2,COc1ccc(CCNc2nc(C)cc(=O)[nH]2)cc1OC,-2.16
3,CC(C)C(=O)Nc1ccc(NC(=O)c2ccccc2Cl)nc1,4.02
4,CC(=O)Nc1nc(-c2ccccc2)c(-c2ccccc2)o1,-17.3
5,CCOc1ccc(OCCCCNC(C)(C)C)cc1.O=C(O)C(=O)O,8.98
6,Cc1ccccc1C(=O)NC1CCN(CC(=O)Nc2ccc3c(c2)OCCO3)CC1,2.93
7,Cc1ccc(-n2nc(C)c(=O)c(-c3ccccc3)c2NC(=O)C(C)C)cc1,10.5
8,COc1ccc(CN(Cc2cccnc2)S(=O)(=O)c2ccc(-n3cnnn3)c(C)c2)cc1OC,-41.9
9,COC(=O)/C=C1/SC(=NC(=O)c2ccc(F)cc2)NC1=O,-6.46
10,CC(OC(=O)CCC(=O)c1ccccc1)C(=O)Nc1ccc(F)cc1 (centres unmarked),-284
11,CCOC(=O)C1C(CC)NC(=S)NC1(C)O (centres unmarked),23.8
12,COc1cc2[nH]c(=S)nc(Nc3ccc(NC(C)=O)cc3)c2cc1OC,12.3
13,CC(=O)Nc1cccc(-c2cn3ccccc3n2)c1,-0.548
14,Cc1cc(C)c2c(N)c(C(=O)c3ccc(Cl)cc3)sc2n1,6.19
15,Cc1ccc(-n2nnnc2SCC(=O)c2cc(C)n(-c3cc(C)on3)c2C)cc1,4.41
16,COC(=O)c1ccc(OC(=O)c2ccccc2F)cc1,32.3
17,COc1ccc(CC(=O)Nc2ccccc2N2CCCCC2)cc1OC,-15.5
18,CCOC(=O)C1CCCN(c2ncnc3c2cnn3-c2ccc(Cl)cc2)C1 (centres unmarked),-12.7
19,Cn1nccc1NC(=O)CC(CC(=O)O)c1ccccc1 (centres unmarked),10
20,CC(=O)Nc1ccc(NC(=O)C2CCCN2S(=O)(=O)c2cccc3nsnc23)cc1 (centres unmarked),18.9
21,COc1cccc(NC(=O)CN(C)C(=O)CNC(=O)c2sc3ccccc3c2Cl)c1,-15.8
22,Cc1ccc2cc(C#N)c(NCCNC(=O)C3CCC3)nc2c1C,1.15

row,SMILES,"hERG current change (%, negative = inhibition) at 10uM [%]"
1,Cc1ccc2nc(Cl)c(CNCc3ccccc3)cc2c1,-3.51
2,CC[C@]12CCCN3CCc4c(n(c5ccccc45)[C@@](O)(C(=O)OC)C1)[C@@H]32,-80.9
3,CC1CCC(C(C)C)C(OCC(O)C[N+]2(C)CCCCC2)C1.[I-] (centres unmarked),19.2
4,CC/C(=N\NC(=O)c1csc(C)c1C)c1cccs1,6.65
5,COc1ccc(S(=O)(=O)N(C)CC(=O)NC2CC2)cc1,2.71
6,COc1cc2c(cc1OC)/C(=C/C(=O)N1CCOCC1)NC(C)(C)C2.Cl,13.5
7,CCC(C(=O)OC)n1cnc2c(nnn2-c2ccccc2)c1=O (centres unmarked),-7.76
8,COc1cccc(CNC(=O)CCc2ccc(OC)c(OC)c2)c1,10.4
9,CCOc1ccc2nc(NC(=O)C3CCN(S(=O)(=O)c4cnc[nH]4)CC3)sc2c1,-8.96
10,COC(=O)CN(c1ccc(OCc2ccccc2)cc1)S(C)(=O)=O,6.08
11,Cc1ccc(CN2C(=NC(=O)CCC(=O)O)SC3CS(=O)(=O)CC32)cc1 (centres unmarked),0.971
12,COc1ccc(S(=O)(=O)N2CCOCC2)cc1C(=O)NC1CCCCCC1,-4.36
13,COc1cccc(OC)c1C(=O)NCCc1ccccc1,15.1
14,CC1SC(c2ccc(Cl)cc2)NC1=O (centres unmarked),13.2
15,O=C1Nc2ccccc2C(=O)N2[C@H](c3ccccc3)[C@@H]3C(=O)N(Cc4ccccc4)C(=O)[C@@H]3[C@H]12,-41.1
16,CCCCCCC1CC(/C(C)=N\NC(N)=O)OC1=O (centres unmarked),-53
17,COc1ccc(C(c2nnnn2Cc2ccc(F)cc2)N2CCN(c3ccc(OC)cc3)CC2)cc1 (centres unmarked),-7.57
18,Cc1cc(NC(=O)CSc2nnc(C3CC3)n2N)c([N+](=O)[O-])cc1C,24.3
19,CCC(C)(C)C(=O)Nc1cc([N+](=O)[O-])ccc1F,0.0472
20,Cc1cccc(-n2c(-c3cccs3)nc3ccccc3c2=O)c1,-5.98
21,COc1ccc(Cl)cc1NC(=O)CN(c1ccccc1)S(=O)(=O)N(C)C,-10.1
22,O=C(CSc1nnc2ccc(-c3ccc(F)cc3)nn12)NCC1CCCO1 (centres unmarked),-42.8

row,SMILES,"hERG current change (%, negative = inhibition) at 10uM [%]"
1,Cc1nnc(SCC(=O)N2CC(=O)Nc3ccccc32)s1,10.4
2,COc1cc(C(C(=O)NC2CCCCC2)N(Cc2cccs2)C(=O)Cc2c[nH]c3ccccc23)cc(OC)c1OC (centres unmarked),7.94
3,O=S1OC(c2ccccc2)c2cc(Cl)ccc21 (centres unmarked),11
4,CNS(=O)(=O)c1cccc(C(=O)OCC(=O)Nc2ccc(Cl)cn2)c1,-23.3
5,CCCC(=O)N1CCN(c2ccc(NC(=O)c3sc4ccccc4c3Cl)cc2)CC1,11.7
6,CN(CC(=O)Nc1ccc(Cl)c(C(F)(F)F)c1)C(=O)c1cc(-c2ccncc2)nc2ccccc12,12.8
7,O=C(CN(Cc1ccccc1F)C(=O)Cn1nnc(-c2cccs2)n1)NCC1CCCO1 (centres unmarked),-20.5
8,O=C(CN(c1ccccc1F)S(=O)(=O)c1ccccc1)N1CCCCCC1,-6.07
9,Cn1nnnc1SCC(=O)Nc1ccccn1,19.2
10,COc1ccc(C)cc1NC(=O)CN(C)S(=O)(=O)c1ccc2c(c1)n(C)c(=O)c(=O)n2C,3.01
11,O=C(CN1C(=O)C2C3C=CC(C3)C2C1=O)Nc1cccc2c1CCCC2 (centres unmarked),-16
12,Cc1ccc(C)c(S(=O)(=O)N2CCCCC2CCNC(=O)C(=O)NC2CC2)c1 (centres unmarked),-12.2
13,Cc1cc(=O)n(CCc2ccccc2)c(O)c1C#N,24.7
14,O=C1CC[C@@H](O)CCN1CC[C@H](Sc1ccccc1)c1ccccc1,-10.4
15,CCCCc1ccc(S(=O)(=O)N/N=C(/C)c2ccncc2)cc1,16.7
16,CCCOc1ccc(C2C(=O)N(C3CCCCC3)CC(=O)N2C2CC2)cc1OC (centres unmarked),0.517
17,COc1cc(NS(=O)(=O)c2ccc(NC(=O)/C(=C/c3ccccc3Cl)NC(=O)c3ccccc3)cc2)nc(OC)n1,35.4
18,O=C(C1CC1)N1CCCN(C(=O)C2CC2)CC1,16.3
19,COc1cc2nc(NCCCN3CCN(C)CC3)n3nc(-c4ccccc4)nc3c2cc1OC,0.193
20,O=C(COc1ccc(Br)cc1)NCCCN1CCCC1=O,-14.3
21,O=C(CN1C(=O)C2C3C=CC(C3)C2C1=O)NCc1ccccc1 (centres unmarked),5.59
22,Cc1cc(OCC(=O)Nc2ccc(OCc3ccccc3)cc2)nc(C(C)C)n1,3.36

row,SMILES,"hERG current change (%, negative = inhibition) at 10uM [%]"
1,CC1Cc2ccccc2N1C(=O)CSc1nnnn1Cc1ccccc1 (centres unmarked),-24.1
2,CCOC(=O)C1CCN(S(=O)(=O)c2ccccc2[N+](=O)[O-])CC1,2.39
3,CCn1nc(C)c(NC(=O)/C=C/c2ccc(OC)c(COc3ccc(Br)cc3)c2)c1C,-6.09
4,CCN1C(=O)[C@@H]2[C@@H](c3ccc(-c4ccc(OC)cc4)c(OC)c3)N3CCC[C@@]3(C(=O)OC)[C@@H]2C1=O.O=C(O)C(F)(F)F,-12.7
5,COC(CNC(=O)Cn1ncc2ccsc2c1=O)OC,15.7
6,NC(=S)N/N=C1\CC(n2nnnc2-c2ccccc2Cl)C2COC1O2 (centres unmarked),-14.4
7,Cn1c2ccccc2c2cc(/C=N/NC(=O)c3cc(O)ccc3O)ccc21,4.48
8,Cc1ccc(-n2cc(C(=O)c3ccc(N4CCN(C)CC4)cc3)nn2)cc1Cl,11.6
9,CCOC(CNC(=O)Cn1nc(Cc2ccncc2)c2ccccc2c1=O)OCC,19
10,O=C1[C@@H]2[C@@H]3C[C@@H]([C@H]4ON=C(c5ccc(Cl)cc5Cl)[C@@H]34)[C@@H]2C(=O)N1C1CCCCC1,-5.74
11,O=C(CCN1CCN(c2ccccc2)CC1)c1ccc(Br)cc1,-55.1
12,COc1ccc(C2/C=C\CN(C(=O)Nc3ccccc3)CC(=O)N2Cc2ccc(F)cc2)cc1 (centres unmarked),-2.9
13,COc1cccc(OCC(=O)NNC(=O)c2cccs2)c1,6.63
14,Oc1ccc(N2CCN(c3ccnc4cc(Cl)ccc34)CC2)cc1,-22.7
15,COc1cccc(NC(=O)c2ccc(CN3CCOCC3)cc2)c1,3.07
16,Cc1ccc(-c2nc(NC(=O)CSc3nnc4scc(-c5ccccc5)n34)ns2)cc1,-1.19
17,COc1cccc(OCC(O)CN2CCOCC2)c1.Cl (centres unmarked),18.7
18,Cc1ccc(N2CC(NC(=O)C(=O)c3c(C)[nH]c4ccccc34)CC2=O)cc1 (centres unmarked),-47.8
19,CN(Cc1nc(-c2ccccn2)no1)S(=O)(=O)c1ccc(Cl)cc1,-10.3
20,CSc1ncc(CN2CCN(C(C)C)C(CCO)C2)cn1 (centres unmarked),-2.82
